The chains are these.
B1: chr2:120444880:120444881:+_ENSMUSG00000027285_ENSMUST00000124187|mus_mus|FALSE|FALSE (ssRNA)
RNA: GGGAGUUCUACAGUCCGACGAUCUCACUUGGCCCUGGAGGUUUCGGUGUGAGCCUUAGGAAAAAAAGGUAAAGGAGGCACUAUGUCAAGUUCAUGAAGAUGGCGUUCUUCAGUUAGCAUUUUGGGGAUAUACAAGGAAAUUUCCAACAGAGGAUUGAGCAUCA
B2: chr9:114657494:114657495:+_ENSMUSG00000032434_ENSMUST00000035007|mus_mus|FALSE|FALSE (ssRNA)
RNA: GGGAGUUCUACAGUCCGACGAUCGAUUGUCUCAGGUAUUUUGUUAUAGAAACAGUCAGCAGACUAAUAGUUGGUAACACUAAAGUAGCUCAGAUUUGCUGUUAAUUCUCAAUAGGUCUAAAUGAUAUUUACAGCACAGCUUGACAACAGAGGAUUGAGCAUCA
B3: chr7:28127222:28127223:-_ENSMUSG00000089832_ENSMUST00000003857|mus_mus|FALSE|FALSE (ssRNA)
RNA: GGGAGUUCUACAGUCCGACGAUCUUUUAUUGGAGAUAGUGGCUUUGGCUUUUAGAAAAGGAGAGAGGUGGGAACCUGGCGACACAGAUUACACCAAGGAGCCCCUGGCCCUGGCUCCAACAGGAAGCCCCCUCCCCAGUUCCACAACAGAGGAUUGAGCAUCA
B4: 45362850_45362970_6999_3pUTR_ENSG00000175387_ENST00000356825|human|control|control (ssRNA)
RNA: GGGAGUUCUACAGUCCGACGAUCGGUCUGUCCAUGAAAGGAAAAUGUACACAGACAAAUUAAGAACAUUUUACCAGGAUCUGAGAUUUAAACAAUGGAACAAUUGUUUUAACUGUUAGAAUGACCCCAACUGUUAAGUUUGUCCAACAGAGGAUUGAGCAUCA
B5: 5830942_5832723_454_3pUTR_ENSG00000099219_ENST00000339450|human|control|control (ssRNA)
RNA: GGGAGUUCUACAGUCCGACGAUCCCAAAAGGUAGUGCACGGUCAGAAUUUCAUUUUCUGGACUUCCUGUAGUCCUGGGGCCAAUGGAGGUUAUGUGUUCAAGAUAAUCCCUGGCUUGGAGCGCGUCGAACUCCCCGCGGUGUCCAACAGAGGAUUGAGCAUCA
B6: chr11:60966614:60966615:-_ENSMUSG00000042506_ENSMUST00000041683|mus_mus|FALSE|FALSE (ssRNA)
RNA: GGGAGUUCUACAGUCCGACGAUCGAGCAGCGGCCGCUUAGUUUUGCCACAGCUAUGUCAUUCCAUCGCAAUUCGCUAGCUAAGGAGCUGGGCUGGGCCCUGUACUGCUCUUUUAUAGCCUGUAAGUGAAAAAACAAAAUCUUACAACAGAGGAUUGAGCAUCA
B7: chr16:94690093:94690094:+_ENSMUSG00000040785_ENSMUST00000117648|mus_hu|mus_mus_mus_hu_True|1_58 (ssRNA)
RNA: GGGAGUUCUACAGUCCGACGAUCGGGCUGGGAUGACGGACACACAGCCUCGAUUCCAGGGGGAAAAAGUCUUAGUCAAUACUAAUUAAAAAGUGUUAAUGAUUUUUGAAAAUCAGAUUACAUCUAUAAAAGAUGAAAGCACUUCAACAGAGGAUUGAGCAUCA
B8: chr6:38489255:38489256:+_ENSMUSG00000019689_ENSMUST00000019833|mus_mus|motif|central (ssRNA)
RNA: GGGAGUUCUACAGUCCGACGAUCCACUGAACGCUCACCCUUGCCAUGAAAUUCCUGAUGAAGGGCUACAUGUUGCCGGAUGCGGCUCAAAAGGCAGAGAUAGGUGGCAGCUUGGAAGUGAAGUUCGUGUUGGGCUCUACACAACAACAGAGGAUUGAGCAUCA
B9: chr8:117878989:117878990:-_ENSG00000164754_ENST00000297338|hu_hu|hu_hu_hu_mus_True|58_108 (ssRNA)
RNA: GGGAGUUCUACAGUCCGACGAUCCCAGAGGCCCUCUUUUACUGAGGACAAAAUGUGCGUAGAACAUUUUUCUUAUUGGCUAUGAAAUAAGAAGAAACCUGGAUCUCGGCGGGGAGCCGGGAGGGGUGGGUGGCCCGGGGAGGGCAACAGAGGAUUGAGCAUCA
B10: chr7:116558156:116558157:+_ENSG00000198898_ENST00000458284|hu_hu|motif|central (ssRNA)
RNA: GGGAGUUCUACAGUCCGACGAUCAAAAACUUUUAACCAUAAACUAGAAGAAUCAUCUCUUCAUUGUAAGAAAGAAAGGCCGGACAGAAAGACAUUUAAACUAAACUGAUUUUCAAUCCUCUUAGAACAAACAAAAUGAAAAAUCAACAGAGGAUUGAGCAUCA
B11: chr3:176767854:176767855:-_ENSG00000177565_ENST00000430069|hu_hu|hu_hu_hu_mus_False|38_98 (ssRNA)
RNA: GGGAGUUCUACAGUCCGACGAUCGACAUCCUUGUUACUUGGAACAUCCUGCCCUCCUUCCCGUAUGCAGUGUCUAAGCACGAGCUGCGUAGGGCCACUGGUGCUGUUCUCACUGAGGUUCCAGAUUCUUGCCGUGGAGUCUCCCAACAGAGGAUUGAGCAUCA
B12: 154938123_154938243_1682_CDS_ENSG00000160691_ENST00000448116|human|control|control (ssRNA)
RNA: GGGAGUUCUACAGUCCGACGAUCCCCAUUGAGCUGCAGCAGUGCCUCAGCCUCCCGCCGGCUCAGCUUCCCAUGGAACCAGGGCUCCCCUCGGAGCUGCUCAGCCAUGGACACCGACUGGGGAGGUGGAGGCACGCGAAGAGCCAACAGAGGAUUGAGCAUCA
B13: chr16:94651144:94651145:+_ENSMUSG00000040785_ENSMUST00000117648|mus_hu|mus_mus_mus_hu_True|58_108 (ssRNA)
RNA: GGGAGUUCUACAGUCCGACGAUCAUUCUCUUGGAUCAAGUGGCGAAUAACAUAGUCCACUGCUUCAUUUAGAAAAUUUUUGCUAGAAAAACAGGUUGUAUAGUCUUCUGUGCUCAAAACUUUCCAAGAAAGCAAUUCUUUGAGCAACAGAGGAUUGAGCAUCA
B14: chr13:42874254:42874255:+_ENSG00000023516_ENST00000025301|hu_hu|motif|central (ssRNA)
RNA: GGGAGUUCUACAGUCCGACGAUCUCCACCAAUAUCUGUUUGGCAAAAACAUUCAGCUGGAGUACAGCCUCCAAGAGGACGGAAAGCAGAGGAUCGAAUAGGACUAAAUAAACCACUAUCUUCCCUUGAUGCCUUCACUGGGCGCAACAGAGGAUUGAGCAUCA
B15: chr1:163117127:163117128:-_ENSG00000143248_ENST00000313961|hu_mus|motif|central (ssRNA)
RNA: GGGAGUUCUACAGUCCGACGAUCUGCUACAAAGGAUGUAACUCAACUCACAGGGCAACUUUUGGAAGCCUGACCAGAUGACGGCUUGAUUAGCUCCUUAUAAAAUUCAGAGCGCACAAAGCGGGGCAGAGAAUCCUUCUCCAUCAACAGAGGAUUGAGCAUCA
B16: chr17:65337135:65337136:-_ENSG00000197170_ENST00000584008|hu_hu|motif|central (ssRNA)
RNA: GGGAGUUCUACAGUCCGACGAUCUCUGGAAGUUGAUAAUUCCUGCUAAUCUGUCUACUUUAGCAAAGAUGGUCUUGUUAACGGCGGGAUUUGAGAGAAAGGCUUCGGACUCAUCAACAGAUAGAUCCAGAAGCUGUGCCAUCCCAACAGAGGAUUGAGCAUCA
B17: chr1:204375296:204375297:-_ENSG00000158615_ENST00000367188|hu_mus|motif|central (ssRNA)
RNA: GGGAGUUCUACAGUCCGACGAUCUGUUCACUUCUUAACAUUGCUGUACAACAGUAAGUCCUUUGACUCGAUCCUCAGUCGGUUAAACAUUUUUUCUCUGUGCUCAAAGGCCAAGCAGUAGCCAAUGGCAACUUCUGUUUCUUGCAACAGAGGAUUGAGCAUCA
B18: chr2:42543136:42543137:+_ENSG00000143924_ENST00000318522|hu_hu|FALSE|FALSE (ssRNA)
RNA: GGGAGUUCUACAGUCCGACGAUCAUCUAUUGAGUAGCGCAUCACAGAGAGCUGUUCAUUCCCGUCUGUGUGGAUAGAAACUAGAUCUCUGGUUUCUGCAUCCAGAACAAACCACCUGCCUGAGUGCGUUCCUAUGGCCACCACCAACAGAGGAUUGAGCAUCA
B19: chr14:21838049:21838050:-_ENSG00000092201_ENST00000216297|hu_hu|FALSE|FALSE (ssRNA)
RNA: GGGAGUUCUACAGUCCGACGAUCGUUGAGCUCCCCAUCCUCCUUUACAGCGAUGGUAUAUGCCACAACUGCACUGAUAUCUAUUUUGUCAAAGCCUUCUUUGUUGAGGCAGUCAUUCCAGCUCUUCAUGAACUCUCCAGGGAACAACAGAGGAUUGAGCAUCA
B20: chr6:38652254:38652255:-_ENSG00000124767_ENST00000373365|hu_hu|FALSE|FALSE (ssRNA)
RNA: GGGAGUUCUACAGUCCGACGAUCUGAAAACUUCAUAAUGGGAAAAUCACAUUUUUGGAUUAGCGUCAUUCCAAGAACUCUAGUAUAAAAAUCCAGUGACUUCUUAGGAUCCUUCACUCGUAGCAUGGUCUGCUGCAAUAGAAACAACAGAGGAUUGAGCAUCA
B21: chr4:140556289:140556290:+_ENSMUSG00000036622_ENSMUST00000037055|mus_mus|mus_mus_mus_hu_False|8_58 (ssRNA)
RNA: GGGAGUUCUACAGUCCGACGAUCGAUGGAGCUCACCAGGCCCCCUUUUGCCGUGCAGAACCCUGUGCGGGUCACCACUGCUAGCACGUGCGGUCCCACAUAGGCCCGGGCCUGCAAGAUGAGGGUCCCACAGAAGAGUGUGUGCAACAGAGGAUUGAGCAUCA
B22: chr5:43295983:43295984:-_ENSG00000112972_ENST00000433297|hu_hu|FALSE|FALSE (ssRNA)
RNA: GGGAGUUCUACAGUCCGACGAUCGAUACUAUUUUUAUCUCUAUUCUGGUCAUUAAGGAAGUCAUUCAGCAACAUCCGAGCUAGAGAUUUCUGAACCAGUUUACAAUAUGGUGAGUGAAAGAUCAUGAAGCCAAAAUCAUUCAACAACAGAGGAUUGAGCAUCA

This is one part of the list.

Drawing on PMC12136788, this text covers binding signal for 22 molecules.

In the test the target is T1, UNK ZnF1-3 (human, UniProt Q9C0B0 31-174).
T1 sequence: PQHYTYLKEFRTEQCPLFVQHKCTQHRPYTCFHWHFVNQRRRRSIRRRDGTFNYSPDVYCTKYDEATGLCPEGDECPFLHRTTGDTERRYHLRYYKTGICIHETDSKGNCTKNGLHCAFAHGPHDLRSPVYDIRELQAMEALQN
Kind of test: nsRBNS (natural sequence RNA bind-n-seq); RBNS binding buffer (assumed for nsRBNS): 25 mM Tris pH 7.5, 150 mM KCl, 3 mM MgCl2, 0.01% Triton X-100, 500 ug/ml BSA, 20 U/ml SUPERase-In, 4 C; UNK is unkempt and MSI1 is Musashi-1; names of the RNAs are library labels; protein concentration not given here; high values mean tight binding.
The molecule B1 had a binding signal of 1.72 enrichment R.
In turn, B2 displayed a binding signal of 0.78 enrichment R.
Molecule B3 showed a binding signal of 1.52 enrichment R.
B4 had a binding signal of 0.915 enrichment R.
For B5 the value was 0.939 enrichment R; for B6, 0.656 enrichment R; for B7, 0.873 enrichment R.
B8 yielded a binding signal of 0.977 enrichment R.
Molecule B9 had a binding signal of 1.7 enrichment R.
For B10, the binding signal came to 1.29 enrichment R.
B11 displayed a binding signal of 0.603 enrichment R.
Turning to B12, the binding signal turned out to be 0.361 enrichment R.
For B13 the value was 0.578 enrichment R; for B14, 1.46 enrichment R; for B15, 1.05 enrichment R.
The molecule B16 gave a binding signal of 0.8 enrichment R.
Regarding B17, the binding signal came to 0.681 enrichment R.
B18 had a binding signal of 1.04 enrichment R.
Regarding B19, the binding signal turned out to be 1.04 enrichment R.
B20: the binding signal stood at 0.5 enrichment R.
For B21, the binding signal was 2.12 enrichment R.
For the molecule B22, the binding signal stood at 0.972 enrichment R.
